Source: the supplement of paper PMC10670038
Counter-ions that a name gives are not always drawn. ± gives the standard deviation of the averaged measurements. The full ranking holds about 2,000 compounds; the median of “relative cell viability vs DMSO, compound + 0.2 uM CuET” is about 1, and the lowest 2% start at about 0.25. The list shows a part of the results.

test system: TE10; experiment: relative cell viability vs DMSO, compound + 0.2 uM CuET (fraction); TE10 is an esophageal squamous carcinoma line; higher = less cytotoxic; settings: 2 µM; co-treatment: CuET (bis(diethyldithiocarbamate)copper) 0.2 uM; 48 h
Description: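 TE10 ESCC cells (1,000/well, 384-well plates) were treated with Selleck bioactive library compounds at 2 uM combined with 0.2 uM CuET (copper diethyldithiocarbamate) for 48 h. Viability was read by CellTiter-Glo and expressed relative to DMSO wells. Two technical replicates (A, B).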

Row | SMILES | relative cell viability
1 | O=C1c2ccccc2C(=O)c2c1ccc(O)c2O [Alizarin] | 1.1 ± 0.029
2 | CC(/C=C1\SC(=S)N(CC(=O)O)C1=O)=C\c1ccccc1 [Epalrestat] | 1.06 ± 0.12
3 | c1ccc(CNc2nc(NCc3ccccc3)c3ccccc3n2)cc1 | 0.623 ± 0.11
4 | COC(=O)CCSCc1ccc(-c2onc(C)c2NC(=O)OC(C)c2ccccc2Cl)cc1 (stereo unspecified) | 0.919 ± 0.024
5 | Cc1nc(=O)c2cc(CN(C)c3ccc(C(=O)N[C@@H](CCC(=O)O)C(=O)O)s3)ccc2[nH]1 [Raltitrexed] | 0.948 ± 0.02
6 | CS(=O)(=O)N1CCc2c(-c3cnc(N)nc3)nc(N3CCOCC3)nc21 | 0.686 ± 0.0086
7 | O=c1oc2ccccc2c(O)c1Cc1c(O)c2ccccc2oc1=O [Dicoumarol] | 1.056 ± 0.0037
8 | Cc1ccccc1CN1C2=NCCN2C(=O)C2=C1CCN(Cc1ccccc1)C2 [TIC10 Analogue] | 1.11 ± 0.052
9 | Nc1cc(C(Cl)=C(Cl)Cl)c(S(N)(=O)=O)cc1S(N)(=O)=O [Clorsulon] | 0.984 ± 0.21
10 | CC[C@H](C)C(=O)O[C@H]1CCC=C2C=C[C@H](C)[C@H](CC[C@@H]3C[C@@H](O)CC(=O)O3)[C@H]21 [Mevastatin] | 1.11 ± 0.13
11 | COc1ccc([C@@H]2CC(=O)c3c(O)cc(O[C@@H]4O[C@H](CO)[C@@H](O)[C@H](O)[C@H]4O[C@@H]4O[C@@H](C)[C@H](O)[C@@H](O)[C@H]4O)cc3O2)cc1O [Neohesperidin] | 1.2 ± 0.14
12 | CC(=O)OCC(CCn1cnc2cnc(N)nc21)COC(C)=O [Famciclovir] | 1.27 ± 0.052
13 | CC(C)CC(CC(=O)NO)C(=O)N[C@@H](Cc1ccc2ccccc2c1)C(=O)N[C@@H](C)C(=O)NCCN (stereo partly specified) | 1.19 ± 0.051
14 | O=C(/C=C/c1ccc(O)c(O)c1)OCCc1ccccc1 [Caffeic Acid Phenethyl Ester] | 0.875 ± 0.056
15 | C=CC(=O)Nc1cccc(Oc2nc(Nc3ccc(N4CCN(C)CC4)cc3OC)ncc2Cl)c1 | 0.929 ± 0.086
16 | C[C@H](CCC(=O)O)[C@H]1CC[C@H]2[C@@H]3[C@H](O)C[C@@H]4C[C@H](O)CC[C@]4(C)[C@H]3CC[C@]12C [Chenodeoxycholic Acid] | 0.999 ± 0.047
17 | CCC(=O)O[C@]1(C(=O)CCl)[C@@H](C)C[C@H]2[C@@H]3CCC4=CC(=O)C=C[C@]4(C)[C@@]3(F)[C@@H](O)C[C@@]21C [Clobetasol propionate] | 1.05 ± 0.028
18 | O=C1C[C@@H](c2ccc(O)cc2)Oc2cc(O)cc(O)c21 [Naringenin] | 1.16 ± 0.16
19 | O=S(=O)(O)c1cc(O)ccc1O [Ethamsylate] | 1.08 ± 0.096
20 | COc1ccc(F)c(F)c1C(=O)c1cnc(NC2CCN(S(C)(=O)=O)CC2)nc1N | 0.558 ± 0.14
21 | CCOC(=O)[C@H](CCc1ccccc1)N[C@H]1CS[C@H](c2cccs2)CN(CC(=O)O)C1=O [Temocapril HCl] | 1.08 ± 0.088
